Experimental data reported in patent US8735349B2, “Method for improving glucose tolerance in a diabetes type 2 patient of younger than 50 years and having postprandial plasma glucose concentration of at least 14 mmol/L” (priority 2011, dated 2014).

Test system: obese type 2 diabetic patients younger than 50 and not adequately controlled with metformin
Settings: human, in vivo

N[C@@H](CC(=O)N1CCn2c(nnc2C(F)(F)F)C1)Cc1cc(F)c(F)cc1F [sitagliptin]
% of patients with TEAE: Abdominal distension: 0.6% | % of patients with TEAE: Abdominal pain: 2.5% | % of patients with TEAE: Abdominal pain upper: 3.7% | % of patients with TEAE: Alanine aminotransferase increased: 1.2% | % of patients with TEAE: Anaemia: 1.2% | % of patients with TEAE: Anxiety: 1.9% | % of patients with TEAE: Any class: 60.9% | % of patients with TEAE: Arthralgia: 1.9% | % of patients with TEAE: Asthenia: 0.6% | % of patients with TEAE: BLOOD AND LYMPHATIC SYSTEM DISORDERS: 1.2% | % of patients with TEAE: Back pain: 2.5% | % of patients with TEAE: Bronchitis: 2.5% | % of patients with TEAE: CARDIAC DISORDERS: 3.1% | % of patients with TEAE: Cellulitis: 1.2% | % of patients with TEAE: Constipation: 0.6% | % of patients with TEAE: Cough: 1.2% | % of patients with TEAE: Dermatitis: 1.2% | % of patients with TEAE: Diarrhoea: 7.5% | % of patients with TEAE: Dizziness: 3.1% | % of patients with TEAE: Dyslipidaemia: 1.2% | % of patients with TEAE: Dyspepsia: 1.9% | % of patients with TEAE: Ear infection: 0.6% | % of patients with TEAE: Erectile dysfunction: 1.2% | % of patients with TEAE: Fatigue: 1.2% | % of patients with TEAE: Flatulence: 2.5% | % of patients with TEAE: GASTROINTESTINAL DISORDERS: 21.1% | % of patients with TEAE: GENERAL DISORDERS AND ADMINISTRATION SITE CONDITIONS: 6.8% | % of patients with TEAE: Gastritis: 0.6% | % of patients with TEAE: Gastroenteritis: 4.3% | % of patients with TEAE: Gout: 1.2% | % of patients with TEAE: HEPATOBILIARY DISORDERS: 0.6% | % of patients with TEAE: HLGT: Administration site reactions: 1.9% | % of patients with TEAE: HLGT: Anxiety disorders and symptoms: 1.9% | % of patients with TEAE: HLGT: Bone and joint injuries: 3.7% | % of patients with TEAE: HLGT: Cardiac arrhythmias: 1.9% | % of patients with TEAE: HLGT: Cardiac disorder signs and symptoms: 1.2% | % of patients with TEAE: HLGT: Epidermal and dermal conditions: 1.9% | % of patients with TEAE: HLGT: Gastrointestinal inflammatory conditions: 1.9% | % of patients with TEAE: HLGT: Gastrointestinal investigations: 1.2% | % of patients with TEAE: HLGT: Gastrointestinal motility and defaecation conditions: 9.3% | % of patients with TEAE: HLGT: Gastrointestinal signs and symptoms: 14.3% | % of patients with TEAE: HLGT: General system disorders NEC: 5.6% | % of patients with TEAE: HLGT: Glucose metabolism disorders (incl diabetes mellitus): 4.3% | % of patients with TEAE: HLGT: Headaches: 9.3% | % of patients with TEAE: HLGT: Hepatobiliary investigations: 1.2% | % of patients with TEAE: HLGT: Infections - pathogen unspecified: 24.2% | % of patients with TEAE: HLGT: Injuries NEC: 1.2% | % of patients with TEAE: HLGT: Joint disorders: 1.9% | % of patients with TEAE: HLGT: Lipid metabolism disorders: 1.9% | % of patients with TEAE: HLGT: Neurological disorders NEC: 4.3% | % of patients with TEAE: HLGT: Purine and pyrimidine metabolism disorders: 1.9% | % of patients with TEAE: HLGT: Respiratory disorders NEC: 3.7% | % of patients with TEAE: HLGT: Sexual dysfunctions, disturbances and gender identity disorders: 0.6% | % of patients with TEAE: HLGT: Sexual function and fertility disorders: 1.2% | % of patients with TEAE: HLGT: Sleep disorders and disturbances: 1.9% | % of patients with TEAE: HLGT: Urinary tract signs and symptoms: 2.5% | % of patients with TEAE: HLGT: Urolithiases: 0.6% | % of patients with TEAE: HLGT: Vascular hypertensive disorders: 2.5% | % of patients with TEAE: HLGT: Viral infectious disorders: 6.8% | % of patients with TEAE: HLT: Abdominal and gastrointestinal infections: 4.3% | % of patients with TEAE: HLT: Anxiety symptoms: 1.9% | % of patients with TEAE: HLT: Asthenic conditions: 2.5% | % of patients with TEAE: HLT: Cardiac signs and symptoms NEC: 1.2% | % of patients with TEAE: HLT: Coughing and associated symptoms: 1.2% | % of patients with TEAE: HLT: Dermatitis and eczema: 1.2% | % of patients with TEAE: HLT: Diarrhoea (excl infective): 7.5% | % of patients with TEAE: HLT: Digestive enzymes: 1.2% | % of patients with TEAE: HLT: Disturbances in consciousness NEC: 0.6% | % of patients with TEAE: HLT: Disturbances in initiating and maintaining sleep: 1.2% | % of patients with TEAE: HLT: Dyspeptic signs and symptoms: 1.9% | % of patients with TEAE: HLT: Ear infections: 1.2% | % of patients with TEAE: HLT: Elevated triglycerides: 0.6% | % of patients with TEAE: HLT: Erection and ejaculation conditions and disorders: 1.2% | % of patients with TEAE: HLT: Flatulence, bloating and distension: 3.1% | % of patients with TEAE: HLT: Gastritis (excl infective): 0.6% | % of patients with TEAE: HLT: Gastrointestinal atonic and hypomotility disorders NEC: 1.9% | % of patients with TEAE: HLT: Injection site reactions: 1.2% | % of patients with TEAE: HLT: Joint related signs and symptoms: 1.9% | % of patients with TEAE: HLT: Limb injuries NEC (incl traumatic amputation): 2.5% | % of patients with TEAE: HLT: Lipid metabolism and deposit disorders NEC: 1.2% | % of patients with TEAE: HLT: Liver function analyses: 1.2% | % of patients with TEAE: HLT: Lower respiratory tract and lung infections: 2.5% | % of patients with TEAE: HLT: Nausea and vomiting symptoms: 6.8% | % of patients with TEAE: HLT: Neurological signs and symptoms NEC: 3.1% | % of patients with TEAE: HLT: Oedema NEC: 2.5% | % of patients with TEAE: HLT: Purine metabolism disorders NEC: 1.9% | % of patients with TEAE: HLT: Rate and rhythm disorders NEC: 1.2% | % of patients with TEAE: HLT: Renal lithiasis: 0.6% | % of patients with TEAE: HLT: Sexual desire disorders: 0.6% | % of patients with TEAE: HLT: Upper respiratory tract infections: 14.3% | % of patients with TEAE: HLT: Upper respiratory tract signs and symptoms: 1.9% | % of patients with TEAE: HLT: Urinary abnormalities: 1.9% | % of patients with TEAE: HLT: Urinary tract infections: 1.2% | % of patients with TEAE: HLT: Vascular hypertensive disorders NEC: 2.5% | % of patients with TEAE: HLT: Viral infections NEC: 3.7% | % of patients with TEAE: Headache: 9.3% | % of patients with TEAE: Hyperglycaemia: 1.2% | % of patients with TEAE: Hypertension: 2.5% | % of patients with TEAE: Hypertriglyceridaemia: 0.6% | % of patients with TEAE: Hypoglycaemia: 3.1% | % of patients with TEAE: Injection site haematoma: 1.2% | % of patients with TEAE: Insomnia: 1.2% | % of patients with TEAE: Joint injury: 1.2% | % of patients with TEAE: Libido decreased: 0.6% | % of patients with TEAE: Limb injury: 1.2% | % of patients with TEAE: Lipase increased: 0.6% | % of patients with TEAE: METABOLISM AND NUTRITION DISORDERS: 9.3% | % of patients with TEAE: Malaise: 1.2% | % of patients with TEAE: Microalbuminuria: 1.2% | % of patients with TEAE: NERVOUS SYSTEM DISORDERS: 12.4% | % of patients with TEAE: Nasopharyngitis: 7.5% | % of patients with TEAE: Nausea: 6.8% | % of patients with TEAE: Nephrolithiasis: 0.6% | % of patients with TEAE: Oedema peripheral: 2.5% | % of patients with TEAE: Oropharyngeal pain: 1.2% | % of patients with TEAE: PSYCHIATRIC DISORDERS: 4.3% | % of patients with TEAE: Pain in extremity: 1.2% | % of patients with TEAE: Palpitations: 1.2% | % of patients with TEAE: Pharyngitis: 1.9% | % of patients with TEAE: RENAL AND URINARY DISORDERS: 4.3% | % of patients with TEAE: REPRODUCTIVE SYSTEM AND BREAST DISORDERS: 1.2% | % of patients with TEAE: RESPIRATORY, THORACIC AND MEDIASTINAL DISORDERS: 5.0% | % of patients with TEAE: Respiratory tract infection: 1.2% | % of patients with TEAE: SKIN AND SUBCUTANEOUS TISSUE DISORDERS: 2.5% | % of patients with TEAE: Sinusitis: 0.6% | % of patients with TEAE: Somnolence: 0.6% | % of patients with TEAE: Tachycardia: 1.2% | % of patients with TEAE: Upper respiratory tract infection: 3.7% | % of patients with TEAE: Urinary tract infection: 1.2% | % of patients with TEAE: VASCULAR DISORDERS: 3.1% | Number of patients with TEAE: Abdominal distension: 1 | Number of patients with TEAE: Abdominal pain: 4 | Number of patients with TEAE: Abdominal pain upper: 6 | Number of patients with TEAE: Alanine aminotransferase increased: 2 | Number of patients with TEAE: Anaemia: 2 | Number of patients with TEAE: Anxiety: 3 | Number of patients with TEAE: Any class: 98 | Number of patients with TEAE: Arthralgia: 3 | Number of patients with TEAE: Asthenia: 1 | Number of patients with TEAE: BLOOD AND LYMPHATIC SYSTEM DISORDERS: 2 | Number of patients with TEAE: Back pain: 4 | Number of patients with TEAE: Bronchitis: 4 | Number of patients with TEAE: CARDIAC DISORDERS: 5 | Number of patients with TEAE: Cellulitis: 2 | Number of patients with TEAE: Constipation: 1 | Number of patients with TEAE: Contusion: 0 | Number of patients with TEAE: Cough: 2 | Number of patients with TEAE: Decreased appetite: 0 | Number of patients with TEAE: Depression: 0 | Number of patients with TEAE: Dermatitis: 2 | Number of patients with TEAE: Diarrhoea: 12 | Number of patients with TEAE: Dizziness: 5 | Number of patients with TEAE: Dyslipidaemia: 2 | Number of patients with TEAE: Dysmenorrhoea: 0 | Number of patients with TEAE: Dyspepsia: 3 | Number of patients with TEAE: EYE DISORDERS: 0 | Number of patients with TEAE: Ear infection: 1 | Number of patients with TEAE: Erectile dysfunction: 2 | Number of patients with TEAE: Fatigue: 2 | Number of patients with TEAE: Flatulence: 4 | Number of patients with TEAE: GASTROINTESTINAL DISORDERS: 34 | Number of patients with TEAE: GENERAL DISORDERS AND ADMINISTRATION SITE CONDITIONS: 11 | Number of patients with TEAE: Gastritis: 1 | Number of patients with TEAE: Gastroenteritis: 7 | Number of patients with TEAE: Gout: 2 | Number of patients with TEAE: HEPATOBILIARY DISORDERS: 1 | Number of patients with TEAE: HLGT: Administration site reactions: 3 | Number of patients with TEAE: HLGT: Anxiety disorders and symptoms: 3 | Number of patients with TEAE: HLGT: Appetite and general nutritional disorders: 0 | Number of patients with TEAE: HLGT: Bone and joint injuries: 6 | Number of patients with TEAE: HLGT: Cardiac arrhythmias: 3 | Number of patients with TEAE: HLGT: Cardiac disorder signs and symptoms: 2 | Number of patients with TEAE: HLGT: Depressed mood disorders and disturbances: 0 | Number of patients with TEAE: HLGT: Epidermal and dermal conditions: 3 | Number of patients with TEAE: HLGT: Gastrointestinal inflammatory conditions: 3 | Number of patients with TEAE: HLGT: Gastrointestinal investigations: 2 | Number of patients with TEAE: HLGT: Gastrointestinal motility and defaecation conditions: 15 | Number of patients with TEAE: HLGT: Gastrointestinal signs and symptoms: 23 | Number of patients with TEAE: HLGT: General system disorders NEC: 9 | Number of patients with TEAE: HLGT: Glucose metabolism disorders (incl diabetes mellitus): 7 | Number of patients with TEAE: HLGT: Headaches: 15 | Number of patients with TEAE: HLGT: Hepatic and hepatobiliary disorders: 0 | Number of patients with TEAE: HLGT: Hepatobiliary investigations: 2 | Number of patients with TEAE: HLGT: Infections - pathogen unspecified: 39
